# Reference: patent US20260256712A1, “COMPOUNDS FOR INHIBITING GRAM-POSITIVE BACTERIA” (priority 2022, published 2026)
# System: B. subtilis 1S-75
# Test: Zone inhibition assay (ZIA), B. subtilis
# Assay type: cell-based, Bacillus subtilis
# Design: key: no halo NA; *: one; **: two; ***: three; ****: four; *****: five stars corresponding to the largest halo
# Settings: filter disk with 30 nmoles compound; control disks 100 μg carbenicillin or 50 μg ampicillin; overnight 30° C.
row,Compound,"size of halo, B. subtilis"
1,Oc1ccc2ccccc2c1SSc1c(O)ccc2ccccc12 [IPA-3],**
2,"CC[C@@H]1Cc2cc(O)ccc2C2=C1c1ccc(O)cc1C[C@H]2CC [RR-THC, (R,R)-tetrahydrochrysene]",***
3,CC1(C)S[C@@H]2[C@H](NC(=O)[C@H](N)c3ccccc3)C(=O)N2[C@H]1C(=O)O [ampicillin],*****
4,CC1(C)S[C@@H]2[C@H](NC(=O)C(C(=O)O)c3ccccc3)C(=O)N2[C@H]1C(=O)O (some centres unmarked) [carbenicillin],****
5,C[C@H]1c2cccc(O)c2C(=O)C2=C(O)[C@]3(O)C(=O)C(C(N)=O)=C(O)[C@@H](N(C)C)[C@@H]3[C@@H](O)[C@@H]21 [doxycycline],*****
6,Cc1cc2c(C(C)C)c(O)c(O)c(C=O)c2c(O)c1-c1c(C)cc2c(C(C)C)c(O)c(O)c(C=O)c2c1O [gossypol],**
7,CN(C)c1ccc(O)c2c1C[C@H]1C[C@H]3[C@H](N(C)C)C(O)=C(C(N)=O)C(=O)[C@@]3(O)C(O)=C1C2=O [minocycline],*****
8,C[n+]1cc2c3c(ccc2c2ccc4cc5c(cc4c21)OCO5)OCO3 [sanguinarine chloride],****
